Variants at the background level are over-represented here.
B1: TPR 5TU (parent)
chain: GGAUCUUCUCGAUCUAACAAAAAAGACAAAUCUGCCACAAAGCUUGAGAGCAUCUUCGGAUGCAGAGGCGGCAGCCUUCGGUGGCGCGAUAGCGCCAACGUUCUCAACUAUGACACGCAAAACGCGUGCUCCGUUGAAUGGAGUUUAUCAUG

Variants of: B1
Test: polymerase ribozyme fitness, log enrichment relative to wild type (log ratio); higher = more active; in vitro selection for triplet polymerase activity
In short: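 Mutant libraries of each subunit of a heterodimeric triplet polymerase ribozyme were built by PCR and transcribed. Each library went through one round of in vitro selection in triplicate: annealing with biotinylated primer, partner subunit and triplets, frozen incubation at −7 °C, gel excision of extended constructs, streptavidin-bead capture and RT-PCR. Input and output libraries were Illumina-sequenced; only genotypes with ≥10 input reads and ≥1 read per output were kept. Fitness is log2(genotype enrichment/wild-type enrichment), using inverse-variance-weighted replicate averages.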

Polymerase ribozyme fitness (log ratio), ≤ -4.2:
GGAUCUUUUCGAUCUAACAAAGAAGACAAAUCUGCCACAAAGCUUGAGAGCAUCUUAGGAUGCAGAAGCCGCAGCCUUCCGUGGUGCGAUAGCGCCAACGUUCUCAACUAUGACACGCAAAACGCGUGCUCCGUUGUAUGGAGUUUAUCAUG [C8U A22G C57A G67A G70C G80C C85U A137U]
GGAUCUUUUCGAUCUAACUAAAAUGACAAAUCUGCCACAAAGCUUGAGAGCAUCUUCGGAUACAGAGGCGGCAGCCUUCGGAGGCGCGAUAGCGCCAACGUUCUCAACUAUGACACGCAAAACGCGUGCUCCGUUGAAUGGAGUUUAUCAUG [C8U A19U A24U G62A U82A]
GGAUCUUUUCGAUCUAACAAAGAAGACAUAUCUGCCACAAAGCGUGCGAGCAUCUUCGGAUGCAGAGGCGGCAGCCUGCGGUGGGGCGAUAGCGCCAUCGUUCUCACCUAUGACACGCAAAACGCGUGCUCCGUUGAAUGGAGUUUAUCAUG [C8U A22G A29U U44G A47C U78G C85G A98U A107C]
GGAUCUUUUCGAUCUAACAAAAAAGACAAAUCUGCCACGAAGCUUGAGAGCAUCUUCGGAUGCAGAGGCGGCAGCCUUCGGUGGCUCGAUAGCGCCAACGUCCUCAACUAGGACACGCAAAACGCGUGCUCCGUUGAAUGGAGCUUAUCAUA [C8U A39G G86U U102C U111G U144C G152A]
GGAUCUUUUCGAUCUAACAAUUAAGACAAAUCUGCCCCAAAGCUUGAGAGCAUCUUCGGAUGCAGAGGCGGCAGCCUUCGGUGGGGCGAUAGUGCCAACGUUCUCAACUAUGACACCCAAAACGCGUGCUCCGUUAAAUGUAGUGUAUCAUA [C8U A21U A22U A37C C85G C93U G117C G136A G141U U145G G152A]
GGAUCUUUUCGAUCUAACAAAAAAGACAAUUCAGCCACAAAGCUUGAGAGCAUCUUCGGAUGUAGACGCGGCAGCCUUCGGUGGCGCGAUAGCGCCAACGUUCUCAACUAUGACACGUAAAACGCGUGCUCCGUUGAAUGGAGUUUAUCAUG [C8U A30U U33A C63U G67C C118U]
GGAUCUUUUCGAUCUAACCAAAAAGACAAAUCUGCCACAAAGCUUGAGAACAUCUUCGGAUGCAGAGGCGGCAGCCUUCGGUGGCGCGAUAGCGCUAACGUUCUCAACUAUGACACGCAAAACGCGUGCUCCGUUGAAUGGAGUUUAUCAUG [C8U A19C G50A C96U]
GGAUCUUUUCGAUCUAACAAAAAAGACUAAUCUGCCACAAAGCUUGAGAGCAACUUCGGAUGCAGAAGUGGCAGCCUUCGGUGGCGCCUUAGCGCCAGCGUUCUCAACUAUGACACGCAAAACGCGUGCUCCGUUGACUGGAGUUUAUCAUG [C8U A28U U53A G67A C69U G88C A89U A98G A138C]
GGAUCUUUUCGAUCUAACAAAAAAGUCAAAUCUGCCACAAAGCUUGAGAGCAUCUUCGGAUGCAGAGGCGGCAGCCUUCGGUGGCGCGAUAGCGCCAACGUUCUCAACUAUGACACGCAGAACGUGUGCUCCGUUGAAUGGAGUUUAUCAUG [C8U A26U A120G C125U]
GGAUCUUUUCGAUCUAACAAAAAAGACAACUUUGCCACAAAGCUUGAGAGCGUCUUCGGAUGCAGAGGCGGUAGCCUUCGGUGGCGCGAUAGUGCCGACGUUCUCAAGUAUGACACGCAAAACGCGUGCUCCGUUGAAUGGAGUUUAUCAAG [C8U A30C C32U A52G C72U C93U A97G C108G U151A]
GGAUCUUUUCGAUCUAACAAACAAGACAAAUCUGCCACAAAGCUUGAGAGCAUCUUCGAAUGCAGAGGCGGCAGUCUUCGGUGGCGCGAUAGCACCAACGUUCUCAACUAUGACACGCAAAACGCGUGCUCCGUUGAAUGGAGUUUAUCAUG [C8U A22C G59A C75U G94A]
GGAUCUUUUCGAUCUAACAAAAAGGACAUAUCUGCCACAAAGCUUGAGAGCAUCUGCGGAUGCAGAGGGGGCAGCAUUCGGUGGUGCGAUAGCGCCAACGGUCUCAACGAGGACACGCAAAACGCGUGCUCCGUUGAAUGGAGUUUAUCAUG [C8U A24G A29U U56G C69G C76A C85U U101G U109G U111G]
GGAUCUUUUCGAUCUAACAAAAAAGACAAAUCUGCCGCAAAGCUUGAGAGCAUCUUCGGUUGAAGAGGCGGCAGCCUUCGGUGGCGCGAUAGCGCCAACGUUCUCAACUAUGACACGCAAAACGCGUUCUCCGUUGGAUGAAAUUUAUCAUG [C8U A37G A60U C63A G128U A137G G141A G143A]
GGAUCUUUUCGAUCUAACAAAAAAGACAAAUCUGCCCCAAAGCUUGAGAGCAUCUUCGGAUGCAGAGGCGGCAGCCUUCGGUGGCGCGAUAGAGCCAACGUUCUCAACUAUGACACGCAAAACGCGUGCUCCGUUGAAUGGAGUUUAUCAGG [C8U A37C C93A U151G]
GGAUCUUUUCGAUCUAACAAAAAAGACAGAUCUGCCACAAAGCUUGAGAGCAUCUUCGGAUACAGAGGCGGCAGCCUUCGGUGGCGCGAUAGUGACAACGUUCUCAACUAUGACACGCAAAACGCGUGCUCCGUUGAAUGGAGAUUAUCAUG [C8U A29G G62A C93U C95A U144A]
GGAUCUUUUCGAUCUAACGAAAAAGACAAAUCUCCCACAAAGCUUGAGAGCAUCUUCGGAUGCAGAGGCGGCAGCCUUCGGUGGAGCGAUAGCGCCAACGUUCUCAACUAUGACACGCAAAACGCGUGCUCCGUUGAAUGGAGUUUAUCAUG [C8U A19G G34C C85A]
GGAUCUUUUCGAUCUAACACAAAAGACAAAUCUGCCACAAAGCUUGAGGGCAACUUCGGAUGCAGAGGCGGCAGCCUUCGGUGGCGCGAUAGCGACAACGUUCUCGACUAUGACACGGAAAACGCGUGCUCCGUUGAAUGGAGUUUAUCAUG [C8U A20C A49G U53A C95A A106G C118G]
GGAUCUUUUCGAUCUAACAAACAAAACAAAUCUGCCACAAUGCUUGAGAGCAUCUUCGCAUGCAGAGGCGGCAGCCUUCGGUGGGGAGAUAGCGCCAUCCUUCUCAACUAUGACACGAAAAACGCGUGCUCCGUUGAAUGGAGUUUAUCAUG [C8U A22C G25A A41U G59C C85G C87A A98U G100C C118A]
GGAUCUUUUCGAUCUAACCAAAAAGACAAAUCUGCCACAGAGCUUGAGAGCAUCUUUGGAUGCAGAGGCGGCAGCCUUCGGUGGCGCGAUAUCGCCAACGUUCUCAACUAUGACACGCAAAACGCGUGCUCCGUUGAAUAGAGUUAAUCAUG [C8U A19C A40G C57U G92U G140A U146A]
